Reference: PMC3804554
These are yes or no findings as the source states them, for the method shown. Binding seen in cells or lysates may run through a third protein. Some results given as binding are weak or reduced against the parent protein; the word gives no strength. Where a sequence is shown, tags or fusion partners need not be part of it. Each block holds one binder with its values, some of them ahead of it.

Tests used:
[1] = target: T1, EloA-Myc (Elongin A, Myc-tagged) (Drosophila melanogaster) (UniProt Q9VCP0); test: co-IP; Myc- and FLAG-tagged proteins co-expressed in S2 cells; cells treated with 1% paraformaldehyde for 10 minutes at room temperature before extraction; IP with anti-FLAG or anti-Myc, Western blot
T1 sequence: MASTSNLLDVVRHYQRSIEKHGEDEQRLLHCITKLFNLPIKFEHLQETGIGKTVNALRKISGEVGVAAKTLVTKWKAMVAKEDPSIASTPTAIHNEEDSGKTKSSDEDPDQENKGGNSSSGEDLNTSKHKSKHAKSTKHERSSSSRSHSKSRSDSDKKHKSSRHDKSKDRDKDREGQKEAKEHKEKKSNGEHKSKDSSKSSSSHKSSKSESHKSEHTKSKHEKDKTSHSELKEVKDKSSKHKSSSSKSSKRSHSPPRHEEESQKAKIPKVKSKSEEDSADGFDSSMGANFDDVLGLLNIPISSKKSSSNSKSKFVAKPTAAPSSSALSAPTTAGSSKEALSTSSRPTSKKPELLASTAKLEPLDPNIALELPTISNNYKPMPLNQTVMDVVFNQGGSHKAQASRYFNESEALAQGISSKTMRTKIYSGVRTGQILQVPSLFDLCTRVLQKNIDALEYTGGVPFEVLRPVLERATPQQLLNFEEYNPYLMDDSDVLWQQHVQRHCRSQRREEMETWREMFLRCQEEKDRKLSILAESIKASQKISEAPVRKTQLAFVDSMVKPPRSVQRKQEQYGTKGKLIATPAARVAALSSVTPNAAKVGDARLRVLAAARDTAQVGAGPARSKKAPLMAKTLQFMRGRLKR

[2] = target: T1, EloA-Myc (Elongin A, Myc-tagged) (Drosophila melanogaster); test: condition: only native protein extracts, without cross-linking; co-IP; Myc- and FLAG-tagged proteins co-expressed in S2 cells; native whole cell extracts (no cross-linking); IP with anti-FLAG or anti-Myc, protein G-agarose, Western blot
[3] = target: T2, Corto-FLAG (ETP Corto, FLAG-tagged) (Drosophila melanogaster) (UniProt P41046); test: co-IP; Myc- and FLAG-tagged proteins co-expressed in S2 cells; cells treated with 1% paraformaldehyde for 10 minutes at room temperature before extraction; IP with anti-FLAG or anti-Myc, Western blot
T2 sequence: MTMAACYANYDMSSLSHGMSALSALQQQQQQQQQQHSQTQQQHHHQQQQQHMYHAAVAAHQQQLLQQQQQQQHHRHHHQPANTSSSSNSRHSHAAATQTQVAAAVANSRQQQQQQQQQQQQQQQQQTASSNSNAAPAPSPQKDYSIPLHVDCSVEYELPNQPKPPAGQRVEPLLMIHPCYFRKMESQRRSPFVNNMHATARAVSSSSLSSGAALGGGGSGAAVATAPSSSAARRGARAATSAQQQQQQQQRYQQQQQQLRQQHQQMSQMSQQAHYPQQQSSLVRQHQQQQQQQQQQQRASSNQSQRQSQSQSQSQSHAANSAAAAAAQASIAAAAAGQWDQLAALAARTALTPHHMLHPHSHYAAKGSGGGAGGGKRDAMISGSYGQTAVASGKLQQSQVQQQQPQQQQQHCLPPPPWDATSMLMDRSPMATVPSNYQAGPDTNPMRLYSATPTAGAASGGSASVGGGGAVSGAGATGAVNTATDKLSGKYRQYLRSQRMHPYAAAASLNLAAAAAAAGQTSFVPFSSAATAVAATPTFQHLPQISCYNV

[4] = target: T2, Corto-FLAG (ETP Corto, FLAG-tagged) (Drosophila melanogaster); test: condition: only native protein extracts, without cross-linking; co-IP; Myc- and FLAG-tagged proteins co-expressed in S2 cells; native whole cell extracts (no cross-linking); IP with anti-FLAG or anti-Myc, protein G-agarose, Western blot
[5] = target: T3, EloB, tagged (co-immunoprecipitation with EloA, data not shown) (Drosophila melanogaster) (UniProt O44226); test: co-IP; data not shown; tagged EloA and EloB in S2 cells, after cross-linking with paraformaldehyde
T3 sequence: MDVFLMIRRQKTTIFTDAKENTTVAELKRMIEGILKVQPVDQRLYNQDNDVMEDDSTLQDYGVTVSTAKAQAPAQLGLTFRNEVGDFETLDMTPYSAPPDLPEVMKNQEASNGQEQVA

binding [1]: binds | binding [2]: no binding
B1: Corto-FLAG (ETP Corto, FLAG-tagged) (protein, UniProt P41046 1-550)
chain: MTMAACYANYDMSSLSHGMSALSALQQQQQQQQQQHSQTQQQHHHQQQQQHMYHAAVAAHQQQLLQQQQQQQHHRHHHQPANTSSSSNSRHSHAAATQTQVAAAVANSRQQQQQQQQQQQQQQQQQTASSNSNAAPAPSPQKDYSIPLHVDCSVEYELPNQPKPPAGQRVEPLLMIHPCYFRKMESQRRSPFVNNMHATARAVSSSSLSSGAALGGGGSGAAVATAPSSSAARRGARAATSAQQQQQQQQRYQQQQQQLRQQHQQMSQMSQQAHYPQQQSSLVRQHQQQQQQQQQQQRASSNQSQRQSQSQSQSQSHAANSAAAAAAQASIAAAAAGQWDQLAALAARTALTPHHMLHPHSHYAAKGSGGGAGGGKRDAMISGSYGQTAVASGKLQQSQVQQQQPQQQQQHCLPPPPWDATSMLMDRSPMATVPSNYQAGPDTNPMRLYSATPTAGAASGGSASVGGGGAVSGAGATGAVNTATDKLSGKYRQYLRSQRMHPYAAAASLNLAAAAAAAGQTSFVPFSSAATAVAATPTFQHLPQISCYNV

binding [3]: binds weakly | binding [4]: no binding
B2: EloB-Myc (Elongin B, Myc-tagged) (protein, UniProt O44226 1-118)
chain: MDVFLMIRRQKTTIFTDAKENTTVAELKRMIEGILKVQPVDQRLYNQDNDVMEDDSTLQDYGVTVSTAKAQAPAQLGLTFRNEVGDFETLDMTPYSAPPDLPEVMKNQEASNGQEQVA

binding [5]: binds weakly
B3: EloA, tagged (co-immunoprecipitation with EloB, data not shown) (protein, UniProt Q9VCP0 1-643)
chain: MASTSNLLDVVRHYQRSIEKHGEDEQRLLHCITKLFNLPIKFEHLQETGIGKTVNALRKISGEVGVAAKTLVTKWKAMVAKEDPSIASTPTAIHNEEDSGKTKSSDEDPDQENKGGNSSSGEDLNTSKHKSKHAKSTKHERSSSSRSHSKSRSDSDKKHKSSRHDKSKDRDKDREGQKEAKEHKEKKSNGEHKSKDSSKSSSSHKSSKSESHKSEHTKSKHEKDKTSHSELKEVKDKSSKHKSSSSKSSKRSHSPPRHEEESQKAKIPKVKSKSEEDSADGFDSSMGANFDDVLGLLNIPISSKKSSSNSKSKFVAKPTAAPSSSALSAPTTAGSSKEALSTSSRPTSKKPELLASTAKLEPLDPNIALELPTISNNYKPMPLNQTVMDVVFNQGGSHKAQASRYFNESEALAQGISSKTMRTKIYSGVRTGQILQVPSLFDLCTRVLQKNIDALEYTGGVPFEVLRPVLERATPQQLLNFEEYNPYLMDDSDVLWQQHVQRHCRSQRREEMETWREMFLRCQEEKDRKLSILAESIKASQKISEAPVRKTQLAFVDSMVKPPRSVQRKQEQYGTKGKLIATPAARVAALSSVTPNAAKVGDARLRVLAAARDTAQVGAGPARSKKAPLMAKTLQFMRGRLKR
